The values below come from ChEMBL document CHEMBL4888484, “Replenishing the malaria drug discovery pipeline: Screening and hit evaluation of the MMV Hit Generation Library 1 (HGL1) against asexual blood stage Plasmodium falciparum ,using a nano luciferase reporter read-out” (2022).

The structures appear in SMILES notation. The whole screen tested about 150,000 compounds, of which about 540 (0.36%) showed an effect of 50% or more. This is one part of the list.

The subject of this test is Plasmodium falciparum. In words: Primary screen in NF54 nanoGlo assay, in single point, at 2uM, 72h; a lower Z score goes with more inhibition. The class given is functional, Erythrocyte. The conditions noted are these: timepoint 72 hour.
In the case of `COC(=O)c1cnc(NC(=O)[C@@H](C)C2CC2)c(O)c1`, the % Inhibition (usually the relative decrease from the control value, in per cent) is recorded as -19% and the Z score worked out at 2.43.
For `COC[C@H]1CC[C@H]1NC(=O)N(C)Cc1ccoc1` the same measures were -1% and 0.14.
Take `CCNc1ccc(Cl)cc1C(=O)N1CCc2cnccc21`: the “% Inhibition” value is -5% and the Z score is on record as 0.48.
`COc1ncc(C(=O)N[C@@H](C)c2cnn(-c3ccc(F)cc3F)c2C)cn1`: the “% Inhibition” value is given as -9% and the Z score is 1.42.
On to `Cn1ccc([C@@H]2CCCCCN2S(=O)(=O)c2ccc(F)cc2)n1`, for which the “% Inhibition” value came out at 5% and the Z score is -0.6.
On to `COc1ccc(NC(=O)Cn2c(C)ncc(C(=O)NC3CCCC3)c2=O)c(OC)c1`, for which the “% Inhibition” value is reported as 3% and the Z score is on record as -0.44.
As to `O=S(=O)(Cc1ccccc1)N1CC[C@H](Cc2nncn2CC2CC2)C1`, the “% Inhibition” value was -12% and the Z score is on record as 2.15.
For `O=C(c1cccc(CC2CCNCC2)c1)N1CCC(c2cccc(O)c2)CC1` the same measures were -4% and 0.5.
Turning to `Cc1nc(C(=O)N(CCO)CC(F)F)c(Br)s1`, the “% Inhibition” value is listed as -9% and the Z score is recorded as 1.2.
Consider `Cc1c(F)cccc1S(=O)(=O)N1CCn2c(nn(C)c2=O)C1`, for which the “% Inhibition” value is listed as -10% and the Z score stood at 1.19.
As for `O=C(NC1CCCC1)[C@H]1CCCN(S(=O)(=O)Cc2ccccc2Cl)C1`, the “% Inhibition” value is -14% and the Z score is 1.81.
For the compound `O=C(c1ccc(F)c(F)c1)N1CC2(C[C@H](N3CCCC3)CO2)C1`, the “% Inhibition” value is recorded as -7% and the Z score came out at 1.1.
Take `CC(C)c1nocc1C(=O)NC1CC(O)c2ccccc21` (stereo not given): the “% Inhibition” value is reported as -12% and the Z score is 1.39.
For `CC[C@H](NC(=O)c1cc2ccccc2o1)C(=O)NCCc1c[nH]c2ccccc12`, in that order: -2% and 0.25.
For `O=C(COc1ccccc1)NC[C@H]1CCCN(C(=O)C2CCOCC2)C1`, the “% Inhibition” value was 9% and the Z score is recorded as -1.16.
For `CC[C@H]1CC[C@@H](C)N(C(=O)c2cccc(C)n2)C1`, in that order: -10% and 1.2.
For `CN(CN1CC(c2cccc(F)c2)CC1=O)C1CCS(=O)(=O)C1` (stereo not given), in that order: -2% and 0.26.
For `CC(=O)Nc1c2n(c3ccccc13)C[C@@](C)(C(=O)NC1CCCCC1)N(C1CCCCCC1)C2=O` the same measures were -3% and 0.33.
For the compound `Cc1cccc(C(=O)N2CCCN(C(=O)c3ccc4c(N)ncnc4c3)CC2)c1`, the “% Inhibition” value is on record as -7% and the Z score is listed as 0.98.
Turning to `O=C(O)C(c1ccsc1)N1CCCC(c2nc(-c3ccc(F)cc3)no2)C1` (stereo not given), the “% Inhibition” value is on record as -11% and the Z score is 1.92.
As for `Cc1cc(C(=O)Nc2cccc(OCC(F)F)n2)on1`, the “% Inhibition” value is recorded as -21% and the Z score amounted to 1.79.
With `CN1C[C@@H]2CN(C(=O)[C@H]3C[C@@H]3c3ccccc3)C[C@@H]2C1`, the “% Inhibition” value turned out to be 5% and the Z score is -0.63.
`CCCCC(=O)Nc1cc(Cl)c(OC)cc1OC`: the “% Inhibition” value is reported as -25% and the Z score is given as 2.28.
For the compound `Cc1ccc(CN(C)c2ncccn2)o1`, the “% Inhibition” value is 2% and the Z score is reported as -0.22.
On to `CCOCC(=O)N1CCOc2cc(F)c(Br)cc21`, for which the “% Inhibition” value is -8% and the Z score stood at 1.11.
For `CCc1ccccc1Nc1nc(C)c(C(=O)NCc2cccnc2)s1`, in that order: 38% and -4.96.
Consider `O=C1NCCC[C@@]12CCN(S(=O)(=O)c1cc(F)c(F)cc1F)C2`, for which the “% Inhibition” value stood at 1% and the Z score is -0.11.
On to `CCCn1ccnc1CN(C)Cc1ccc(-n2cccn2)cc1`, for which the “% Inhibition” value was -6% and the Z score is 0.89.
For `CC[C@H]1CN(c2ccc(-c3nc(-c4ccccc4C)no3)cn2)CCN1C` the same measures were 3% and -0.51.
For the compound `O=C(Nc1ccc(-c2cc[nH]n2)cc1)c1cnccn1`, the “% Inhibition” value is given as -14% and the Z score is recorded as 1.99.
For the compound `CC(C)(C)OC(=O)N[C@@H]1CCCCC[C@H]1NC(=O)c1cc(C2CC2)on1`, the “% Inhibition” value is -2% and the Z score is 0.18.
Consider `COc1cccc(CN2CCC[C@@]3(CCN(C(=O)CC4CC4)C3)C2=O)c1OC`, for which the “% Inhibition” value is -5% and the Z score came to 0.89.
For `CCc1nc(-c2c3n(c(=O)n(CC(=O)Nc4ccc(C)cc4)c2=O)CCCC3)no1` the same measures were -5% and 0.6.
For `COCCn1ccnc1CN1CCC[C@H]1c1nc(-c2ccncc2)no1`, the “% Inhibition” value was determined as 1% and the Z score is given as -0.21.
Take `COCC[C@H](C)NC(=O)Nc1cccc(C(F)F)c1`: the “% Inhibition” value is -8% and the Z score is 0.69.
Regarding `Cn1ccnc1CN[C@H]1CCN(Cc2ccccc2)c2ccccc21`, the “% Inhibition” value is -7% and the Z score is listed as 1.42.
With `CCn1nc(C)cc1-c1cnc(C2CCOCC2)o1`, the “% Inhibition” value is -14% and the Z score is listed as 2.53.
As to `O=C(Nc1ccnn1Cc1ccc(Cl)cc1Cl)c1csc(-c2ccco2)n1`, the “% Inhibition” value is given as -19% and the Z score worked out at 3.63.
In the case of `COc1ccc2[nH]nc(CC(=O)N(C)C)c2c1`, the “% Inhibition” value is reported as -34% and the Z score came out at 3.95.
In the case of `CCN(C(=O)[C@@H]1CCCCn2nnnc21)C1CCCCC1`, the “% Inhibition” value amounted to 1% and the Z score was -0.12.
For `C[C@@H](CNC(=O)COC1CCCCC1)N1CCN(C)CC1` the same measures were -5% and 0.48.
Turning to `Cc1cc(C)nc(NC(=O)c2sc(CC3CC3)nc2C)n1`, the “% Inhibition” value is listed as -31% and the Z score came out at 3.69.
For `Cn1c(C2CC2)nnc1N1CCc2cc(F)ccc2C1`, in that order: -17% and 3.22.
`CC(=O)N[C@@H](CC(C)C)c1nc(-c2ccc(Br)o2)no1`: the “% Inhibition” value is -4% and the Z score turned out to be 0.55.
For `CC(C)c1nc(CN2CCC[C@@](CO)(CC3CC3)C2)co1` the same measures were -3% and 0.27.
Take `CC1CCN(S(=O)(=O)c2cccn(CC#N)c2=O)CC1`: the “% Inhibition” value is given as -7% and the Z score worked out at 1.
With `O=C(CN(CC(O)c1ccccc1)C1CC1)NCC1CCCO1` (stereo not given), the “% Inhibition” value was -8% and the Z score is on record as 1.16.
Turning to `C[C@@H](CN1CC2(CCN(CCOCCO)CC2)OC1=O)c1ccccc1`, the “% Inhibition” value stood at 15% and the Z score is -1.64.
`COc1c(C)cnc(Cn2ccn3nc(-c4ccccc4)cc3c2=O)c1C`: the “% Inhibition” value is -3% and the Z score is 0.36.
As for `C[C@H](NC(=O)c1csc(-c2cccs2)n1)C1CC1`, the “% Inhibition” value is given as -4% and the Z score is reported as 0.65.
For `COc1ccccc1NC(=O)c1csc(-c2ccc(C)n2C)n1` the same measures were -7% and 0.82.
Regarding `Cc1ccc(N2C[C@@H](C(=O)N3CCS(=O)(=O)CC3)CC2=O)cc1`, the “% Inhibition” value is -12% and the Z score came out at 2.59.
`COc1cc(Cc2cc(-c3ccccc3)n[nH]c2=O)cc2c1OCCO2`: the “% Inhibition” value is -11% and the Z score was 1.52.
For `CC1(C)CC(=O)c2cnc3c(C(=O)N4CCC(Cc5ccccc5)CC4)cnn3c2C1` the same measures were -1% and 0.15.
With `O=C(C1CCC1)N(Cc1ccncc1)C1CC1`, the “% Inhibition” value turned out to be 7% and the Z score is recorded as -0.96.
